Read-outs that look alike come from different tables or passages of the source.
T1: extracellular domain of LAG-3 (1-477) fused to the EA subunit (human, UniProt P18627 23-477)
T1 sequence (looked up): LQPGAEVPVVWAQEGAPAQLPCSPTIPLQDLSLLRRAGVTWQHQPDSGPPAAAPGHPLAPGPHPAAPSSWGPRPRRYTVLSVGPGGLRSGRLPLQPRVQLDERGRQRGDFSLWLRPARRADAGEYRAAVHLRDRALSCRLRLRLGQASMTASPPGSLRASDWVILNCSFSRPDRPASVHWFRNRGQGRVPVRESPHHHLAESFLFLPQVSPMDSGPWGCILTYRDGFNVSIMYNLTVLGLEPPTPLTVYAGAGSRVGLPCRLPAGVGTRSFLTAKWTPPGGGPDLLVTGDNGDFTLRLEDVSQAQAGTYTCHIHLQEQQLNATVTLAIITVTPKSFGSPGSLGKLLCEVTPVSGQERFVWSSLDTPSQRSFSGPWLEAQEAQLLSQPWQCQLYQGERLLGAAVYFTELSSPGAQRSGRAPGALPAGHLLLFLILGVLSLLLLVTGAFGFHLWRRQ

T2: human LAG-3 expressed on cells (human, UniProt P18627 23-525)
T2 sequence: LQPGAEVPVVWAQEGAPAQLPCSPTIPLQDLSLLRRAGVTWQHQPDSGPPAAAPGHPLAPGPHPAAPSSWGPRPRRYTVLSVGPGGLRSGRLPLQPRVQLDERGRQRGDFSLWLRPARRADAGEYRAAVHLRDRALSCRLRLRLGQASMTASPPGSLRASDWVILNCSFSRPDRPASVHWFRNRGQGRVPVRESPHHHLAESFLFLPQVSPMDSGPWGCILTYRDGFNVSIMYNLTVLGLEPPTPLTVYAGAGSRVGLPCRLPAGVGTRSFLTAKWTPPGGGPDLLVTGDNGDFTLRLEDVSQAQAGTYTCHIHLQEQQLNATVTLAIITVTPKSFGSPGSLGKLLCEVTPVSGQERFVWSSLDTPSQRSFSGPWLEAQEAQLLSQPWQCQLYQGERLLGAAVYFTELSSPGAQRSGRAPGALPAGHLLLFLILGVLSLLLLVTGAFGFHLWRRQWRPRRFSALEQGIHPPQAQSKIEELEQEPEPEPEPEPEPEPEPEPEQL

B1: F023700969 (102C12 (E1D, L11V, A14P, A74S, K83R, I89L)-20GS-F0237611B09 (L11V, A14P, R41P, N43K, A62S, A74S, K83R, V89L)-20GS-ALB11002-A) (bispecific antibody)
chain: DVQLVESGGGVVQPGGSLRLSCAASGSIASIHAMGWFRQAPGKEREFVAVITWSGGITYYADSVKGRFTISRDNSKNTVYLQMNSLRPEDTALYYCAGDKHQSSWYDYWGQGTLVTVSSGGGGSGGGGSGGGGSGGGGSEVQLVESGGGVVQPGGSLRLSCAASGRTFSDYVMGWFRQAPGKEREFVAAISESGGRTHYADSVKGRFTISRDNSKNTLYLQMNSLRPEDTALYYCATTLLWWTSEYAPIKANDYDYWGQGTLVTVSSGGGGSGGGGSGGGGSGGGGS[about 120 residues not spelt out]
B2: F023701016 (102C12 (E1D, L11V, A14P, A74S, K83R, I89L)-20GS-102C12 (L11V, A14P, A74S, K83R, I89L)-20GS-F0237611B09 (L11V, A14P, R41P, N43K, A62S, A74S, K83R, … (bispecific antibody)
chain: DVQLVESGGGVVQPGGSLRLSCAASGSIASIHAMGWFRQAPGKEREFVAVITWSGGITYYADSVKGRFTISRDNSKNTVYLQMNSLRPEDTALYYCAGDKHQSSWYDYWGQGTLVTVSSGGGGSGGGGSGGGGSGGGGSEVQLVESGGGVVQPGGSLRLSCAASGSIASIHAMGWFRQAPGKEREFVAVITWSGGITYYADSVKGRFTISRDNSKNTVYLQMNSLRPEDTALYYCAGDKHQSSWYDYWGQGTLVTVSSGGGGSGGGGSGGGGSGGGGSEVQLVESGGGVVQPGGSLRLSCAASGRTFSDYVMGWFRQAPGKEREFVAAISESGGRTHYADSVKGRFTISRDNSKNTLYLQMNSLRPEDTALYYCATTLLWWTSEYAPIKANDYDYWGQGTLVTVSSGGGGSGGGGSGGGGSGGGGSEVQLVESGGGVVQPGGSLRLSCAASGRTFSDYVMGWFRQAPGKEREFVAAISESGGRTHYADSVKGRFTISRDNSKNTLYLQMNSLRPEDTALYYCATTLLWWTSEYAPIKANDYDYWGQGTLVTVSSGGGGSGGGGSGGGGSGGGGS[about 120 residues not spelt out]
B3: F023700924 (1PD102C12 (E1D, L11V, A14P, A74S, K83R, I89L)-35GS-F0237611B09 (L11V, A14P, R41P, N43K, A62S, A74S, K83R, V89L)-35GS-ALB11002-A) (bispecific antibody)
chain: DVQLVESGGGVVQPGGSLRLSCAASGSIASIHAMGWFRQAPGKEREFVAVITWSGGITYYADSVKGRFTISRDNSKNTVYLQMNSLRPEDTALYYCAGDKHQSSWYDYWGQGTLVTVSSGGGGSGGGGSGGGGSGGGGSGGGGSGGGGSGGGGSEVQLVESGGGVVQPGGSLRLSCAASGRTFSDYVMGWFRQAPGKEREFVAAISESGGRTHYADSVKGRFTISRDNSKNTLYLQMNSLRPEDTALYYCATTLLWWTSEYAPIKANDYDYWGQGTLVTVSSGGGGSGGGGSGGGGSGGGGSGGGGSGGGGSGGGGS[about 120 residues not spelt out]
notes: trivalent Nanobody fusion: one PD-1 module, one LAG-3 module, one anti-albumin module; Pichia or CHO expressed; also called F023700924-CHO-EXP1
B4: F023701017 (102C12 (E1D, L11V, A14P, A74S, K83R, I89L)-9GS-102C12 (L11V, A14P, A74S, K83R, I89L)-9GS-F0237611B09 (L11V, A14P, R41P, N43K, A62S, A74S, K83R, … (bispecific antibody)
chain: DVQLVESGGGVVQPGGSLRLSCAASGSIASIHAMGWFRQAPGKEREFVAVITWSGGITYYADSVKGRFTISRDNSKNTVYLQMNSLRPEDTALYYCAGDKHQSSWYDYWGQGTLVTVSSGGGGSGGGSEVQLVESGGGVVQPGGSLRLSCAASGSIASIHAMGWFRQAPGKEREFVAVITWSGGITYYADSVKGRFTISRDNSKNTVYLQMNSLRPEDTALYYCAGDKHQSSWYDYWGQGTLVTVSSGGGGSGGGSEVQLVESGGGVVQPGGSLRLSCAASGRTFSDYVMGWFRQAPGKEREFVAAISESGGRTHYADSVKGRFTISRDNSKNTLYLQMNSLRPEDTALYYCATTLLWWTSEYAPIKANDYDYWGQGTLVTVSSGGGGSGGGSEVQLVESGGGVVQPGGSLRLSCAASGRTFSDYVMGWFRQAPGKEREFVAAISESGGRTHYADSVKGRFTISRDNSKNTLYLQMNSLRPEDTALYYCATTLLWWTSEYAPIKANDYDYWGQGTLVTVSSGGGGSGGGS[about 120 residues not spelt out]
B5: F023700970 (102C12 (E1D, L11V, A14P, A74S, K83R, I89L)-9GS-F0237611B09 (L11V, A14P, R41P, N43K, A62S, A74S, K83R, V89L)-9GS-ALB11002-A) (bispecific antibody)
chain: DVQLVESGGGVVQPGGSLRLSCAASGSIASIHAMGWFRQAPGKEREFVAVITWSGGITYYADSVKGRFTISRDNSKNTVYLQMNSLRPEDTALYYCAGDKHQSSWYDYWGQGTLVTVSSGGGGSGGGSEVQLVESGGGVVQPGGSLRLSCAASGRTFSDYVMGWFRQAPGKEREFVAAISESGGRTHYADSVKGRFTISRDNSKNTLYLQMNSLRPEDTALYYCATTLLWWTSEYAPIKANDYDYWGQGTLVTVSSGGGGSGGGS[about 120 residues not spelt out]

Tests used:
[1] = biological target: T3, extracellular domain of PD-1 (1-199) fused to the PK subunit (human, UniProt Q15116 partial chain); assay: cell-based or functional assay
[2] = biological target: T1, extracellular domain of LAG-3 (1-477) …; assay: cell-based or functional assay
[3] = biological target: T4, human PD-1 expressed on cells (human, UniProt Q15116 25-288); assay: cell-based or functional assay
[4] = biological target: T4, human PD-1 expressed on cells; assay: cell-based or functional assay; remark: listed apart in the source
T4 sequence (Q15116 25-288 limits assumed): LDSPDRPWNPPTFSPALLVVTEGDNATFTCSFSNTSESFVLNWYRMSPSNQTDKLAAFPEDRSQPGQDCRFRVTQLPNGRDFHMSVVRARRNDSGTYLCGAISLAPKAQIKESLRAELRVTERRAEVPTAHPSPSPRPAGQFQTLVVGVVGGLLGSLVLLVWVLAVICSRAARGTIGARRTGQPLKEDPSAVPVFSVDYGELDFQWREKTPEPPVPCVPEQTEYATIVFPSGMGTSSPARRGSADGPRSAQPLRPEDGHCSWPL

[5] = biological target: T2, human LAG-3 expressed on cells; assay: cell-based or functional assay
[6] = biological target: T3, extracellular domain of PD-1 (1-199) …; assay: cell-based or functional assay; remark: listed apart in the source
[7] = biological target: T1, extracellular domain of LAG-3 (1-477) …; assay: cell-based or functional assay; remark: listed apart in the source
[8] = biological target: T2, human LAG-3 expressed on cells; assay: cell-based or functional assay; remark: listed apart in the source
MSA = assay: SPR, Biacore T100; MSA block of Table G, Nanobody as analyte
MSA, sequence (P07724 25-608): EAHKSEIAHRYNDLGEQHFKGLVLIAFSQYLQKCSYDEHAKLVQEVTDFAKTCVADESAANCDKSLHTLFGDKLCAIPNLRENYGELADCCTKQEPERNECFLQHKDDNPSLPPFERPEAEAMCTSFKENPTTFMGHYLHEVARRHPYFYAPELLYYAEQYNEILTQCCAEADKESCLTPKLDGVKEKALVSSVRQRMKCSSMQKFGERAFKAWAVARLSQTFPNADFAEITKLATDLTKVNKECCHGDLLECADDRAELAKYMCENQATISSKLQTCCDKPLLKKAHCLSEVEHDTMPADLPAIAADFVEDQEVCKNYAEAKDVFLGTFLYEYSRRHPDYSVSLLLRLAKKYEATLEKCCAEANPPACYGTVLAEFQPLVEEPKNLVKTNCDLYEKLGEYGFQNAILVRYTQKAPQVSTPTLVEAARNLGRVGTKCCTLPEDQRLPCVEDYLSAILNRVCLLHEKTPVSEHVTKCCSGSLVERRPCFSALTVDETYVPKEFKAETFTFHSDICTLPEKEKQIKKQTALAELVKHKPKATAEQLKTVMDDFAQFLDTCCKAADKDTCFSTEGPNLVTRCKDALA

[9] = biological target: T4, human PD-1 expressed on cells; assay: flow cytometry on CHO-K1 cells expressing human PD-1; ABH0074 + PE goat anti-mouse
Experimental: A Nanobody dilution series was prepared in assay buffer: PBS/10% FBS/0.05% sodium azide. 1×10⁵ cells/well were transferred to a 96-well V-bottom plate and resuspended in 100 μL Nanobody dilution.

Rhesus Serum Albumin [10] = biological target: T5, Rhesus Serum Albumin (rhesus, UniProt Q28522 17-600); assay: SPR, Biacore T100; Rhesus Serum Albumin immobilised on CM5, Nanobody as analyte; Langmuir with mass transport
T5 construct: also called RhSA; rhesus albumin
Experimental: (§1) Kinetic analysis of the Nanobodies was performed by SPR technology, using the Biacore T100 instrument (GE Healthcare). […] After immobilization, surfaces were deactivated with 1M ethanolamine/HCl (pH 8.5). The flow rate during the sensor preparation was set on 5 μl/min.
(§2) Sensorgram processing and data analysis was performed with Biacore T100 Evaluation Software Version 2.0.4 (GE Healthcare). […] Processed curves were evaluated via fitting with the model ‘Langmuir with Mass Transport’.

Rhesus Serum Albumin [11] = biological target: T5, Rhesus Serum Albumin; assay: as above; remark: listed apart in the source
T5 sequence (Q28522 17-600 limits assumed): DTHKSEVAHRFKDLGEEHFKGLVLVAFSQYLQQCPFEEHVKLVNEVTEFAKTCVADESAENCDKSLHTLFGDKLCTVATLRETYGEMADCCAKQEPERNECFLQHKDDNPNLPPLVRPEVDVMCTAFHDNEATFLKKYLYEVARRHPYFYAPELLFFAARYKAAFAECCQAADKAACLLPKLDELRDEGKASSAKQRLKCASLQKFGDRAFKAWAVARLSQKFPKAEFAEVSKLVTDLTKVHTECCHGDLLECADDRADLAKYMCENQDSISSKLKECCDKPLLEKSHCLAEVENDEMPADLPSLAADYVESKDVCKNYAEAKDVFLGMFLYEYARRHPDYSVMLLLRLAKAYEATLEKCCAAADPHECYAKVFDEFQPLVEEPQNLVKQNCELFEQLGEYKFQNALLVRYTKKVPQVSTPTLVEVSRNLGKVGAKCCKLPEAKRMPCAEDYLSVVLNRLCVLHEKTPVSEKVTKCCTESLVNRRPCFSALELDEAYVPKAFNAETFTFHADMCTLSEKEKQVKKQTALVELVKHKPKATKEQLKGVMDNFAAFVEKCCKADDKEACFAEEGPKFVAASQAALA
Experimental: as §1, §2

[12] = biological target: T4, human PD-1 expressed on cells; assay: flow cytometry competition: blockade of human PD-L1-hFc binding to CHO-K1 cells expressing human PD-1; PE goat anti-human IgG
Experimental: (§3) Ligand competition assays were performed on human PD-1 over-expressing CHO cells. A Nanobody dilution series was prepared in assay buffer: PBS/10% FBS/0.05% sodium azide. […] 2×10⁴ cells/well were seeded in V-bottom 96-well plates and resuspended in 200 μL/well of the Nanobody/ligand dilution. After 90 minutes incubation at 4° C., the cells were washed with 100 μL/well assay buffer and resuspended in 100 μL/well PE-labeled Goat anti-human IgG (Southern Biotech, 2043-09). Samples were incubated for 30 minutes at 4° C., washed, and resuspended in 100 μL/well of 5 nM TOPRO3 (LifeTechnologies, T3606) solution before analysis on FACS CANTO II (BD).

[13] = biological target: T4, human PD-1 expressed on cells; assay: as above; remark: listed apart in the source
Experimental: as §3

[14] = biological target: T4, human PD-1 expressed on cells; assay: flow cytometry competition: blockade of human PD-L2-hFc binding to CHO-K1 cells expressing human PD-1; PE goat anti-human IgG
Experimental: as §3

Binder | EC50 (read off the curve), proximity assay RLU [1] [nM] | EC50 (read off the curve), proximity assay RLU [2] [nM] | EC50 (read off the curve), IL-2 promoter luciferase RLU [3] [nM] | EC50 (read off the curve), IL-2 pg/ml [4] [nM] | EC50 (read off the curve), IL-2 pg/ml [5] [nM] | EC50 (read off the curve), proximity assay RLU [6] [nM] | EC50 (read off the curve), proximity assay RLU [7] [nM] | EC50 (read off the curve), IL-2 MSD-signal [8] [nM] | koff (MSA) [s⁻¹] | kon (MSA) [M⁻¹ s⁻¹] | EC50 (read off the curve) [9] [nM] | Kd (Rhesus Serum Albumin [10]) [nM] | koff (Rhesus Serum Albumin [10]) [s⁻¹] | kon (Rhesus Serum Albumin [10]) [M⁻¹ s⁻¹] | Kd (Rhesus Serum Albumin [11]) [nM] | kon (Rhesus Serum Albumin [11]) [M⁻¹ s⁻¹] | IC50 (read off the curve) [12] [nM] | IC50 (read off the curve) [13] [nM] | IC50 (read off the curve) [14] [nM]
B1 | ~0.3 | ~0.3 | ~1 | ~1 | ~1 |  |  |  |  |  |  |  |  |  |  |  |  |  | 
B2 |  |  |  | ~0.7 | ~0.7 | ~0.2 | ~0.2 | ~4 |  |  |  |  |  |  |  |  |  |  | 
B3 | ~0.1 | ~0.1 | ~0.7 | ~1 | ~1 |  |  |  | < 0.6 | > 500000 | ~3 | 120 | 0.0079 | 69000 | 120 | 69000 | ~2 | ~2 | ~1
B4 |  |  |  | ~0.6 | ~0.6 | ~0.1 | ~0.1 | ~4 |  |  |  |  |  |  |  |  |  |  | 
B5 | ~0.1 | ~0.1 | ~1 | ~1 | ~1 |  |  |  |  |  |  |  |  |  |  |  |  |  | 

Source: patent publication US20260184783A1 (Merck Sharp & Dohme, published 2026)
